Consider 24 compounds from ChEMBL document CHEMBL4888484, “Replenishing the malaria drug discovery pipeline: Screening and hit evaluation of the MMV Hit Generation Library 1 (HGL1) against asexual blood stage Plasmodium falciparum ,using a nano luciferase reporter read-out” (2022).

The structures appear in SMILES notation. Among all 150,000 compounds or so, about 540 (0.36%) showed an effect of 50% or more. The list shows a part of the results.

This test concerns Plasmodium falciparum. Put plainly: Primary screen in NF54 nanoGlo assay, in single point, at 2uM, 72h; a lower Z score goes with more inhibition. In kind it is functional, Erythrocyte. The following applies: timepoint 72 hour.
For orientation: % Inhibition means the change of the read-out against control, counted positive when it falls. As for `COC(=O)N[C@@H](CC(C)C)C(=O)Nc1cc(CO)cc(CO)c1`, the “% Inhibition” value turned out to be 3% and the Z score is reported as -0.44.
For `COCCc1noc([C@@H]2CCCN2CC(=O)Nc2ccc(Cl)cn2)n1` the same measures were -24% and 3.1.
Taken in the same sequence, the figures for `CCCC1(C2CCN(C(=O)C(C)Oc3ccccc3)CC2)NC(=O)N(Cc2ccco2)C1=O` (stereo not drawn) were -16% and 2.05.
Taken in the same sequence, the figures for `CCn1cc(OCC(=O)NCCc2cccs2)cn1` were 2% and -0.19.
For `O=C(Nc1ccc2c(c1)OCO2)N1CCC(Oc2ccsc2)CC1`, the “% Inhibition” value is on record as 12% and the Z score is listed as -1.64.
For `CC(C)Cc1cc(CNC2CCCC2)on1` the same measures were -2% and 0.39.
For `Cc1cc(C(=O)N(c2ccccn2)C2CCCC2)nc(C(F)(F)F)n1` the same measures were -13% and 2.07.
Taken in the same sequence, the figures for `COC(=O)c1sc(NCc2nc(C3CC3)cs2)nc1C` were -4% and 0.8.
For the compound `FC(F)(F)c1ccccc1CNc1nnc(CCOc2ccccc2)o1`, the “% Inhibition” value is recorded as -13% and the Z score is 1.76.
As for `CCOC(=O)CNC(=O)N1CCC(C)(c2noc(C3CCOCC3)n2)CC1`, the “% Inhibition” value was -1% and the Z score was determined as 0.16.
In the case of `O=C(c1ccc(C2CCC2)cc1)N1CCC(O)CC1`, the “% Inhibition” value was 0% and the Z score is on record as -0.06.
For `C#CCN1C(=O)N[C@@](CC)(C(C)C)C1=O` the same measures were 38% and -1.11.
Taken in the same sequence, the figures for `O=C(NCc1nccnc1-c1cccnc1)c1ccncc1F` were -12% and 1.37.
In the case of `COCCN(C)C[C@@H]1CN(c2cc(C)c3cccc(OC)c3n2)C[C@@H]1CO`, the “% Inhibition” value stood at 2% and the Z score was -0.29.
For `CC(C)c1ncc(CN(C)Cc2cc(C(C)C)on2)cn1` the same measures were -7% and 1.28.
For `Cc1nc(C)c(C)c(N[C@H]2CCCN(Cc3cccc(O)c3)C2)n1` the same measures were 6% and -0.64.
Taken in the same sequence, the figures for `C[C@@H](Cn1ccnc1)NC(=O)CCC(=O)c1ccc2c(c1)OCCO2` were -4% and 0.61.
Turning to `CCC(=O)N1CC[C@H](NC(=O)NC2(Cc3ccccc3)CCCC2)C1`, the “% Inhibition” value is reported as -10% and the Z score is recorded as 1.93.
Consider `CN(Cc1ccnc2ccccc12)C(=O)c1cn(Cc2ccc(F)cc2Cl)nn1`, for which the “% Inhibition” value is on record as 1% and the Z score is given as -0.16.
Taken in the same sequence, the figures for `Cc1c(Cl)cccc1C(=O)Nc1cc(-c2nccn2C)nn1C` were 3% and -0.41.
For `CC(C)CCNC(=O)c1csc(CN(CCC(c2ccccc2)c2ccccc2)Cc2ccc(F)cc2)n1` the same measures were -11% and 1.22.
For `Cn1c(N2CCCN(C(=O)COc3ccc(F)cc3)CC2)cc(=O)n(C)c1=O` the same measures were -6% and 0.96.
Consider `CN(Cc1ccccc1)S(=O)(=O)N1CC(C)(C)[C@@](C)(O)C1`, for which the “% Inhibition” value is on record as -17% and the Z score turned out to be 2.25.
Taken in the same sequence, the figures for `O=C(Cc1n[nH]c(=O)c2ccccc12)N[C@H]1CCCc2c1[nH]c1c(Cl)cccc21` were 3% and -0.39.
